Source: PubChem BioAssay AID1845208 (Molecular Pharmacology Branch, DTP, NCI, 2023)
For part of its entries the source gives two or more results. This list holds those alone. The source may hold further records. The records of an entry are repeated measurements (runs, samples, wells, individuals or studies). Signs of the kind (2×) give the number of equal values in this list.

Test system: NCI-H196 SCLC complex tumor spheroid viability
Assay: Anticancer human tumor NCI-H196 cell line growth inhibition;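 also: spheroids exposed to compounds for 7 days before readout; 100% = DMSO vehicle control wells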
Settings: compound alone 100 µM; stronger effect = lower value
Description: Multicellular complex tumor spheroid response to DNA repair inhibitors in combination with DNA-damaging drugs
This study explores the anticancer activities of DNA-damaging drugs and inhibitors of DNA damage repair, both as single agents and in combinations. Complex tumor spheroids comprised of malignant cells, endothelial cells and mesenchymal stem cells served as an in vitro model for human solid tumors. This model system incorporates physiologically relevant features and patient-derived or established malignant cell lines with clinically relevant genetic alterations from many tumor types. Twenty-six patient-derived or established malignant cell lines were evaluated representing sarcoma, melanoma, small cell lung cancer (SCLC), non-small cell lung cancer (NSCLC), as well as bladder, ovarian and pancreatic cancers. The concentration ranges selected for each drug and investigational agent were based upon clinically achievable concentrations if the clinical Cmax of the agent was known.
Compounds. […] If the clinical Cmax for an agent had not been determined, the highest concentration tested was 10 microM. […]

**Q.** Which viability, T/C does the source give for `Cn1nnc2c(C(N)=O)ncn2c1=O` here?
**A.** 104, 109, 103, 114, 105 (2×), 99.5, 83.5, 102% (2×)
